± gives the standard deviation of the averaged measurements. Whole data set: some 33,000 sequences, median “E-score (dimensionless, -0.5 to 0.5)” near -0.046, cut for the highest 2% near 0.36. The list shows a part of the results.
System: T1, SpTbr T-box DNA-binding domain (GST fusion)
T1 sequence: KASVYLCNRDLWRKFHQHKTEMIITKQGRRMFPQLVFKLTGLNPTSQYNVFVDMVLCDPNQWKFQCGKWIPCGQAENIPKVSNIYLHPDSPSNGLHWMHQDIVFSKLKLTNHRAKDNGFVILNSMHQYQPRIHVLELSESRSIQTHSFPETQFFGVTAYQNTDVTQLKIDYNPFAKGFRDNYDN
Test: PBM E-score of 8-mer (E-score (dimensionless, -0.5 to 0.5)); Tbr is Tbrain of the sea star Patiria miniata (Pm) or the sea urchin Strongylocentrotus purpuratus (Sp); higher = stronger binding preference; most listed sequences are background and not binding sites
Conditions: the construct has about 5 more residues each side
Method in brief: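 Expression of GST-fused Tbr T-box DNA-binding domains, each holding the full T-box plus roughly five flanking residues, was carried out in BL21 E. coli at 20 °C, with purification by glutathione affinity chromatography. Universal Agilent arrays made double-stranded by primer extension were incubated with the protein at 200 nM in PBS (pH 7.5), then scanned and quantified. All ungapped 8-mers were scored from probe intensities, and each received an enrichment E-score from the Universal PBM Analysis Suite, averaged over duplicate arrays.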

In order of rising “PBM E-score of 8-mer” value:
1. GAGTACTA  -0.3652 ± 0.0036
2. GGGTAGGA  -0.292 ± 0.036
3. GACTCCTA  -0.27 ± 0.052
4. GCGGATAC  -0.264 ± 0.029
5. AACCAAGA  -0.26 ± 0.0032
6. AATAATCC  -0.257 ± 0.028
7. CCGAACGG  -0.251 ± 0.059
8. GTACCTAA  -0.251 ± 0.012
9. AGGACCGC  -0.228 ± 0.1
10. GACATAGC  -0.224 ± 0.02
11. AGCGTATG  -0.218 ± 0.088
12. CGGTAGCC  -0.215 ± 0.03
13. ATGGCGGA  -0.214 ± 0.027
14. ATGGACTG  -0.21 ± 0.023
15. AAACGTTG  -0.208 ± 0.035
16. ATTGGTCC  -0.197 ± 0.039
17. AGAGGTAC  -0.195 ± 0.04
18. AATAGACT  -0.193 ± 0.023
19. CTGAAAGC  -0.193 ± 0.033
20. CTGGCTAC  -0.184 ± 0.0044
21. CAGTACTA  -0.174 ± 0.021
22. GAGCGATC  -0.171 ± 0.037
23. ATAACCCC  -0.167 ± 0.056
24. GATCTACC  -0.162 ± 0.033
25. CTAATAGA  -0.157 ± 0.018
26. ACATTCTA  -0.15 ± 0.025
27. CTAAAGGA  -0.147 ± 0.0086
28. CTGTATCA  -0.1466 ± 0.00092
29. CGGGCTGC  -0.132 ± 0.11
30. GGGTATAA  -0.132 ± 0.008
31. CGACTACA  -0.13 ± 0.0069
32. CGTAGCTA  -0.129 ± 0.022
33. CTTAGAAG  -0.118 ± 0.016
34. GGGGGTAC  -0.117 ± 0.082
35. GAAATTTC  -0.116 ± 0.12
36. AGGAGACT  -0.108 ± 0.032
37. CCCGGGTA  -0.108 ± 0.036
38. AAGGGATA  -0.104 ± 0.029
39. CTATGGAC  -0.104 ± 0.077
40. CGACCAGA  -0.103 ± 0.0043
41. GATCTTGC  -0.102 ± 0.053
42. AACATACA  -0.101 ± 0.0086
43. CCAATAGA  -0.1 ± 0.083
44. CAGTCATG  -0.0975 ± 0.045
45. ATATAGTA  -0.0968 ± 0.019
46. ACCAAGGA  -0.0953 ± 0.013
47. AACCCTCC  -0.0929 ± 0.046
48. AGCTATAG  -0.0923 ± 0.041
49. CAGTTCGA  -0.0879 ± 0.061
50. CCGTGTAC  -0.086 ± 0.054
51. CTTCCATC  -0.0852 ± 0.02
52. ATTGCTGG  -0.0842 ± 0.02
53. CGTGCGCC  -0.0837 ± 0.052
54. AGCAAAGA  -0.0779 ± 0.07
55. GATTTATA  -0.0777 ± 0.041
56. GCCCAAAA  -0.07691 ± 0.00033
57. TCCACCAA  -0.0739 ± 0.048
58. CAATACTA  -0.0717 ± 0.077
59. GTTCCTCA  -0.0698 ± 0.064
60. ATTTTTTG  -0.0685 ± 0.073
61. CCCCACAG  -0.0676 ± 0.036
62. ATCGGGGC  -0.0619 ± 0.015
63. CATCCCCC  -0.0617 ± 0.042
64. ACCCGCCC  -0.0563 ± 0.028
65. CTGACTAA  -0.0557 ± 0.041
66. AATTTCTC  -0.0542 ± 0.12
67. CGGCTTAA  -0.0537 ± 0.021
68. ATTGTTGG  -0.0472 ± 0.037
69. TCGGCAAA  -0.0408 ± 0.027
70. AAAGAGCT  -0.035 ± 0.04
71. ACGTCTTG  -0.0206 ± 0.0054
72. AGAGGCTA  -0.0205 ± 0.018
73. GCAAGCGA  -0.0199 ± 0.027
74. CGTCCGAC  -0.0181 ± 0.044
75. AGTTTCCA  -0.0124 ± 0.047
76. AGTTGAAT  0.00375 ± 0.031
77. AGCAATAG  0.00507 ± 0.035
78. AACTCTGG  0.00764 ± 0.0044
79. AGCATCGC  0.0181 ± 0.026
80. CATTCTAC  0.0187 ± 0.11
81. GACGAAGC  0.0228 ± 0.026
82. GGAACGAC  0.0236 ± 0.0013
83. ACAATCCT  0.0327 ± 0.08
84. AACGTTGG  0.0328 ± 0.027
85. ATCAGTTG  0.0334 ± 0.0027
86. ATAAGTCG  0.0426 ± 0.1
87. CACTCTGA  0.0469 ± 0.044
88. AACCCTGC  0.0496 ± 0.055
89. CGATACCA  0.055 ± 0.054
90. ACGTCGTG  0.0557 ± 0.0025
91. GAAGAATC  0.0567 ± 0.027
92. GTAGGCAA  0.0709 ± 0.015
93. AACCGTGC  0.0724 ± 0.018
94. ACTCTCCC  0.0826 ± 0.086
95. TATCCACA  0.0934 ± 0.019
96. ACCGTGCG  0.127 ± 0.015
97. CACCAAGA  0.129 ± 0.058
98. CTCCACAA  0.136 ± 0.0093
99. CACGCTCA  0.161 ± 0.041
100. CAGCTCGC  0.187 ± 0.018
101. AACGACTT  0.211 ± 0.018
102. CGACAACC  0.264 ± 0.045
103. AGTGGCAA  0.305 ± 0.0085
104. CACATATG  0.323 ± 0.02
105. GCCGCGAA  0.343 ± 0.0045
106. ATCGCACG  0.345 ± 0.027
107. AAGCGCGA  0.369 ± 0.007
108. ATGTGTCA  0.4671 ± 0.00078
109. ATGTGCGA  0.47362 ± 0.00026

— the supplement of paper PMC4166925
